Data reported in paper PMC4336329 (PLoS ONE, 2015).
Screen size: about 310,000 compounds; about 2,200 (0.71%) showed an effect of 50% or more. The effect is printed as a negative number. This is one part of the list.

These compounds were tested against human ether-à-go-go-related gene (hERG) potassium channel (human, UniProt Q12809) (assay: primary screen, population patch clamp on CHO cells stably expressing hERG).
Chain of human ether-à-go-go-related gene (hERG) potassium channel (Q12809 whole entry, looked up): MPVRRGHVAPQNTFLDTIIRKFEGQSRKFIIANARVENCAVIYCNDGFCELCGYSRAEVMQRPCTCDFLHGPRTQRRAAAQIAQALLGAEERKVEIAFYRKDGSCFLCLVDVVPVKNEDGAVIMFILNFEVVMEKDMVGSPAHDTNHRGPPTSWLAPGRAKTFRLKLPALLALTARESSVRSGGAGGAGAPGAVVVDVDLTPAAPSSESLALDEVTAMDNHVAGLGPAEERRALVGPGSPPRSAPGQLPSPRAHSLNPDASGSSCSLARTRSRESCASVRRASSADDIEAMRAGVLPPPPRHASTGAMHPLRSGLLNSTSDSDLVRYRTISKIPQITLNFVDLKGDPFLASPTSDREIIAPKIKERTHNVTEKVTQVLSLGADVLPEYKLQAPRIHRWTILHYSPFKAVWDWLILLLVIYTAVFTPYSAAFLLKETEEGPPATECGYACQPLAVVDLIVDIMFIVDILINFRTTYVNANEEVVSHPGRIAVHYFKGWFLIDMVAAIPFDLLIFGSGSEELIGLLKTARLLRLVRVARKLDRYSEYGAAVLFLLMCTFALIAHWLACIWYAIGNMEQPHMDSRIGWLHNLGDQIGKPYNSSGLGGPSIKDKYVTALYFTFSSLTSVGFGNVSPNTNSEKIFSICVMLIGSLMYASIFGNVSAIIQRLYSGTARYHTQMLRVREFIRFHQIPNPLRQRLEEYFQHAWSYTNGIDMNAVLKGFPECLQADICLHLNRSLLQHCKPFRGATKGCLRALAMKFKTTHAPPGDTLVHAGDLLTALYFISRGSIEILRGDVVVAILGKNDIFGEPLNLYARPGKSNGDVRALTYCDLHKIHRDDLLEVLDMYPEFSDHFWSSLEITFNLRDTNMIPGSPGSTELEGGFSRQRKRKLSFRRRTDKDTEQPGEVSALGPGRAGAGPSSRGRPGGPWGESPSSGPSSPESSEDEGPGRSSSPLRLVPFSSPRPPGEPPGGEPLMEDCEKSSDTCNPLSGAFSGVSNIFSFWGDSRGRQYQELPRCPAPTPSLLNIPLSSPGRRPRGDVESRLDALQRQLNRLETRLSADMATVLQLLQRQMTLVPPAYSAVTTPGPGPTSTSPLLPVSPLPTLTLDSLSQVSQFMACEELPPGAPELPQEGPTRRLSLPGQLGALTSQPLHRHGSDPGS

Row | Structure (SMILES) | hERG current change (%, negative = inhibition) at 1uM [%]
1 | CC(=O)Nc1cc(NC(C)=O)c2nc(N)sc2c1.Cl | 7.87
2 | CN(C)CCN(Cc1ccccc1)C(=O)C1CCN(c2ncnc3c2nc2n3CCCCC2)CC1 | 17.3
3 | COCCn1c(SCCOc2ccccc2)nc2ccccc2c1=O | 1.99
4 | COC(=O)c1oc2ccc(Br)cc2c1NC(=O)CN1CCN(C)CC1 | -38.4
5 | O=C(NCc1ccc(F)cc1)C(c1ccc(Cl)cc1)N(C(=O)c1csnn1)C1CC1 (stereo not drawn) | 7.38
6 | CCOc1ccc2nc(NC(=O)C34CC5CC(CC(NC(C)=O)(C5)C3)C4)sc2c1 | -2.64
7 | CCOc1cc2c(cc1OCC)-n1cccc1C(c1ccccc1F)NC2.Cl (stereo not drawn) | 5.64
8 | Cc1ccc(S(=O)(=O)NN2C(=O)c3ccccc3NC2C)cc1 (stereo not drawn) | -1.12
9 | O=C(O)CNS(=O)(=O)c1ccc(Br)s1 | 1.25
10 | CCCCOc1cc(=O)[nH]c(=O)[nH]1 | 3
11 | O=C(NC(=S)NCCO)c1cn(-c2ccccc2)nc1-c1ccccc1 | 21.2
12 | O=C(O)c1ccc2c(c1)C(=O)N(c1ccccc1-c1ccccc1)C2=O | 9.06
13 | Cc1cccc(Nc2ccc([N+](=O)[O-])cc2C(=O)O)c1 | 2.7
14 | CCCCN(CCCC)C(=O)C1CC=CCC1C(=O)O (stereo not drawn) | 11.8
15 | CCOC(=O)C(NC(=O)C1CCCN1C(=O)OCc1ccccc1)C(=O)OCC (stereo not drawn) | 4.03
16 | COc1ccc(N2C(=O)C(Cl)=C(N3CCCC(C)C3)C2=O)cc1 (stereo not drawn) | 9.04
17 | COc1ccc(-c2noc(N3CCC(C(=O)NCc4ccccc4Cl)CC3)n2)cc1 | -0.0528
18 | CCc1ccc(S(=O)(=O)N2c3ccc(C)cc3C3CN(C)CCC32)cc1 (stereo not drawn) | -27.7
19 | COC(C[C@H]1O[C@H]1C(=O)[C@@H](C)OCc1ccccc1)OC | 22.2
20 | CCc1c(O)nc(SCC(=O)N2CCCCC2)n(-c2ccccc2C)c1=O | 6.3
21 | CC(=O)C1=C(O)C(=O)N(c2ccc(Br)cc2)C1c1ccc(Cl)cc1 (stereo not drawn) | 15.3
22 | O=C(CN(Cc1ccccc1Cl)C(=O)c1csnn1)NCc1ccc2c(c1)OCO2 | -4.05
23 | CSc1ccc(-c2cc(=O)c3ccccc3o2)cc1 | 11.2

Row | Structure (SMILES) | hERG current change (%, negative = inhibition) at 1uM [%]
24 | Nc1ccc2c(c1)C(=O)N(CCCCCC(=O)O)C2 | 9.08
25 | CCOc1ccc(-n2c(-c3ccccc3)c[n+]3c2CCCCC3)cc1.[Br-] | -10.4
26 | CN1CCN(c2oc(-c3ccccc3F)nc2S(=O)(=O)c2ccc(Cl)cc2)CC1 | 8.47
27 | O=C(CSc1ncnc2ccccc12)c1ccco1 | 6.09
28 | CC(=O)CSc1nnc(CN2C(=O)CSc3ccc(C(F)(F)F)cc32)n1C | 7.95
29 | COc1ccc(OCCOC(=O)c2cccs2)cc1 | 17.2
30 | COC(=O)c1ccc(COc2ccccc2/C=N/O)o1 | 10.7
31 | COc1ccccc1N1CCN(Cc2cc(Br)c(O)c3ncccc23)CC1 | 11.2
32 | CCOc1ccc(OCc2ccc(C(=O)NC(C)C)o2)cc1 | 12.3
33 | CCOc1ccc(CN(CCO)CCO)cc1C(=O)OC | 4.8
34 | Cc1ccc(NC(=O)c2ccoc2C)cc1C | 6.59
35 | CCOc1cc(S(=O)(=O)N(CC)CC)ccc1Br | 8.03
36 | Cc1ccc(NC(=O)CN2CCc3cc4c(cc3C2C)OCCCO4)cc1C (stereo not drawn) | 13.6
37 | CCOC(=O)c1c(N2CCCCC2)c2ccccc2[nH]c1=O | 15.4
38 | COc1ccc(C(=O)Nc2nc(C)cs2)cc1S(=O)(=O)N1CCCC1 | 10.3
39 | O=C(Nc1cccc(NC(=O)c2ccccc2[N+](=O)[O-])c1)c1ccccc1Cl | 10.6
40 | O=c1[nH]n(-c2ccc(Cl)cc2)c2ncccc12 | 9.95
41 | CC(OC(=O)CCN=C1NS(=O)(=O)c2ccccc21)C(=O)Nc1ccc(F)cc1 (stereo not drawn) | 9.8
42 | CCN1CCN(C(=O)c2ccc(Cl)c(S(=O)(=O)N(C)c3ccccc3)c2)CC1 | 2.36
43 | CCOc1ccc(N(CC(=O)NC2CCCCC2)C(=O)CCC(=O)Nc2cc(C)ccn2)cc1 | 14.3
44 | CCS(=O)c1ccccc1C(=O)O (stereo not drawn) | 11.3
45 | CN(C)S(=O)(=O)c1ccc(NC(=O)CN2CCCC2c2ccc3c(c2)OCCCO3)cc1 (stereo not drawn) | 2.88
46 | C=C(C)CSc1nnc(-c2ccccc2)n1N | 6.63

Row | Structure (SMILES) | hERG current change (%, negative = inhibition) at 1uM [%]
47 | CC1CCN(S(=O)(=O)c2ccc(C(=O)N(C)C3CCS(=O)(=O)C3)cc2)CC1 (stereo not drawn) | 7.79
48 | COc1ccc(OC)c(NC(=O)CSc2sc3c(O)cc(=O)[nH]c3c2C#N)c1 | 2.98
49 | Cc1cccc(CN2CCN(CC(=O)N3CCCC3)C2=O)c1 | 1.37
50 | CCOc1[nH]n(-c2ccc(Cl)cc2)c(=O)c1C=NCC(=O)OC | -13.2
51 | Cc1ccc(C)c(-n2ccnc2SCC(=O)O)c1 | 14.4
52 | COc1ccc(-n2nc(C(=O)NCC(=O)O)c3ccccc3c2=O)cc1 | 20.5
53 | CCOc1ccc(C(=O)NCC(=O)OCC(=O)N2CCCCC2)cc1 | 8.06
54 | CC1Oc2ccccc2N(CC(=O)N2CCCc3ccccc32)C1=O (stereo not drawn) | -3.51
55 | O=C(N/N=C/c1cccc(O)c1)c1ccc(NC(=O)C2CCCCC2)cc1 | 21.1
56 | COc1cc(OC)c(-c2noc(C(=O)OC(C)(C)C)c2C(=O)OC(C)(C)C)c(OC)c1 | 11.8
57 | CCc1cc2c(=O)c(-c3nc4ccccc4[nH]3)coc2cc1OC(=O)N1CCOCC1 | 6.98
58 | CN(C)c1nc(N)nc(-c2ccco2)n1 | 11.2
59 | COCCN(Cc1cc2ccc(C)cc2[nH]c1=O)S(=O)(=O)c1ccccc1 | 5.2
60 | COc1ccc(-c2cc(C(=O)N3CCN(c4ccccc4)CC3)no2)cc1 | 15.1
61 | COc1cccc(C(=O)n2c(SC)nc3cc4c(cc32)OCCO4)c1 | -0.453
62 | O=C(NNC1=NS(=O)(=O)c2ccccc21)c1ccc([N+](=O)[O-])cc1 | 2.66
63 | COc1cccc(C2=NOC(C(=O)NC3CCCCC3)C2)c1 (stereo not drawn) | -2.8
64 | COc1ccc2nc(NC(=O)CSC(C)C(=O)Nc3cc(C)on3)sc2c1 (stereo not drawn) | 6.84
65 | CCOC(=O)C1CCN(C(=O)c2sc3nc(C)nc(N4CCC(C)CC4)c3c2C)CC1 | -1.96
66 | Cc1cc(/C=N/NC(=O)c2cccc(F)c2)c(C)n1-c1ccccc1 | 3.11
67 | CCOc1ccc(CCNc2cc(C)nc3ncnn23)cc1OCC | 3.8
68 | Cc1ccc(CSCC(=O)N(C)CC(=O)Nc2c(Cl)cccc2Cl)cc1 | 0.282
69 | COc1cc(CN2CCNCC2)cc(OC)c1OC.Cl | 15.9

Row | Structure (SMILES) | hERG current change (%, negative = inhibition) at 1uM [%]
70 | CCC(=O)NC(=S)NNC(=O)c1ccc(OC)cc1 | 10.3
71 | CCOC(=O)N1CCN(C(=O)c2cc3ccc(OC)cc3[nH]2)CC1 | 14.2
72 | O=C(/C=C/c1ccccc1)NC(=S)N1CCSCC1 | 3.37
73 | COc1cc(O)ccc1C(=O)CCc1ccc(O)cc1 | -11.6
74 | CC(=O)c1ccc(O)c(CSC2=NCCS2)c1 | 5.49
75 | O=C(CSc1ncn[nH]1)N1N=C2/C(=C/c3ccccc3)CCCC2C1c1ccccc1 (stereo not drawn) | 10.1
76 | Cc1cccc(N2CCN(C(=O)c3cc4ccccc4oc3=O)CC2)c1C | -2.32
77 | Cc1ccc(-c2cc(C)nc3ncnn23)cc1 | 7.99
78 | C#CCOCCOCCOCCNc1nc(N2CCN(C(=O)[C@H](CCC(=O)O)n3cc(C(N)[C@H](C)CC)nn3)CC2)nc(N2CCN(C(=O)[C@H](Cc3cc4ccccc4[nH]3)n3cc(C(N)[C@H](C)CC)nn3)CC2)n1.Cl (stereo partly drawn) | 9.3
79 | Cn1cccc1C(=O)NC(=O)COC(=O)CNC(=O)c1ccc(Cl)cc1Cl | 13.9
80 | Cc1cc(=O)n(CC=C(Cl)Cl)c2ccccc12 | 7.7
81 | Cc1c(C(=O)Oc2ccc(F)cc2)sc2ncn(Cc3cccc(F)c3)c(=O)c12 | -0.534
82 | O=C(CN1CCOCC1)N/N=C/c1ccco1 | 15.7
83 | CC(=O)Nc1cc(-c2nn(C)c(=O)c3ccccc23)ccc1N1CCCCC1 | 21.7
84 | COc1cc(N=Nc2c(O)c3ccccc3[nH]c2=O)c(OC)cc1N=Nc1ccccc1 | 14.8
85 | Cc1ccc(CN2CCc3c(OCC(=O)Nc4cccc(C)c4C)cccc3C2=O)cc1 | 8.32
86 | COc1ccc(CCNC(=O)CS(=O)(=O)Cc2nc(-c3ccccc3Cl)oc2C)cc1OC | 8.61
87 | O=C(Nc1c2c(nn1-c1ccc([N+](=O)[O-])cc1)CS(=O)(=O)C2)c1ccccc1F | 4.47
88 | Cc1cc(=O)n(C)c(=O)n1CCCCCOc1cccc([N+](=O)[O-])c1 | -12.4
89 | CCN1C(=S)SC(=O)C1=C1C=C(C)N(Cc2ccco2)C(C)=C1 | 1.56
90 | CC(Oc1cccc(Cl)c1)C(=O)Nc1nc(-c2ccccn2)cs1 (stereo not drawn) | 9.93
